# Screen size: about 340,000 compounds; about 6,900 (2%) were called active. Cut-off read from the data, not from the text of the source: active = inhibition above about 30%; inactive = below that, where a call was filed. This is a selection; strong and weak results do not stand in their true shares. The source gives no active or inactive call for entries shown without one.
# Target: D(2) dopamine receptor (Homo sapiens) (UniProt P14416)
# Assay: HTS Assay for Allosteric Antagonists of the Human D2 Dopamine Receptor: Primary Screen for Antagonists; note: 0% is about no effect
# Details: HEK293 TREx D2 cells, calcium flux, dopamine EC80; at 10 µM; stronger effect = higher value
# From the text: NIH Chemical Genomics Center [NCGC] NIH Molecular Libraries Probe Centers Network [MLPCN] MLPCN Grant: NS064831-01 Assay Submitter (PI): David Sibley Dopamine receptors (DARs) are involved in the etiology and/or therapy of a number of neuropsychiatric and endocrine disorders. For instance, all receptor-based antiparkinsonian drugs work via stimulating the D2 DAR subtype whereas all FDA-approved antipsychotic agents are antagonists of this receptor. […] There are three different types of allosteric modulators that we are seeking, two of which will stimulate or augment receptor signaling, allosteric agonists and potentiators, while the third, allosteric antagonists, will attenuate receptor signaling. The present primary screening assay measures compound antagonism after an EC80 addition of dopamine by tracking calcium flux in a […], inducible Hek293 Trex D2 cell line.
# Freshly passaged cells are plated in 1536 well black, clear bottom plates at a density of 4000 cells/well in 3 ul of complete media containing 1x tetracycline inducer. After an overnight incubation at 30 C in 5% CO2, cells are loaded with 2 ul of the no wash Calcium Assay Kit (ABD Bioquest) and incubated at room temperature for 30 to 90 minutes. Agonist read: A 10 cycle (1 second/cycle) baseline measurement is taken and then the FDSS online 1536 pintool delivers 23 nl of compound library (as well as dopamine controls) to the plate. The plate is measured for kinetically at 1 cycle/sec for 180 seconds. Following the 180 second read, 1 ul of an EC80 (negative modulation assay) is delivered by an onboard pipette head. Measurements are taken kinetically for an additional 180 seconds.
# UniProt P14416, sequence (P14416 whole entry, looked up): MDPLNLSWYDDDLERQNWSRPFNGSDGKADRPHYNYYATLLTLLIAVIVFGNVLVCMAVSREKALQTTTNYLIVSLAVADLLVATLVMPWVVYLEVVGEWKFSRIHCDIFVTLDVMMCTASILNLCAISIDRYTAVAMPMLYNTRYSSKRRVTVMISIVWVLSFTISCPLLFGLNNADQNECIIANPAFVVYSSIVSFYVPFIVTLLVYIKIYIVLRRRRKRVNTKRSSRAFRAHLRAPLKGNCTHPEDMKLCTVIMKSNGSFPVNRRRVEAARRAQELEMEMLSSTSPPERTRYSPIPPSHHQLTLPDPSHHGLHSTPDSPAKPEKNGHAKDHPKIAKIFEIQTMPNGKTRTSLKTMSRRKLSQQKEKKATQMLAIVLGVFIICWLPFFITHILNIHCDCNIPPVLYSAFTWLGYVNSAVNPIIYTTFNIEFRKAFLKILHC
row,SMILES,inhibition
1,Cc1ccc(CN(C(=O)c2ccccc2F)c2ccccn2)o1,-4.2%
2,Cc1ccccc1OCC(O)CN1CCN(CC(O)COc2ccccc2C)CC1 (centres undefined),active: 61.6%
3,O=C(c1cccn2c(=O)c3cc(Cl)ccc3nc12)N1CCN(c2ccccc2F)CC1,-6.87%
4,CC(=O)Nc1ccc(S(=O)(=O)N2CCC(c3nnnn3-c3ccccc3)CC2)cc1,-11.6%
5,CCOc1ccc(-n2nc(CO)c(C(=O)NCCCc3ccccc3)n2)cc1,-2.49%
6,Cc1cc(C)cc(Oc2coc3cc(OCC(=O)NC4CCCCC4)ccc3c2=O)c1,3.81%
7,COc1ccccc1N1CCN(Cc2cccs2)CC1,active: 82.9%
8,Cc1cc(N)c(-n2cc3c(c2-c2ccc(Br)cc2)c(=O)n(C)c(=O)n3C)cc1C,7.73%
9,O=C(O)CCCNc1cc(N2CCN(C3CCCCC3)CC2)c2noc3c2c1C(=O)c1ccccc1-3,3.32%
10,CCOc1ccc(-c2cc(C(=O)Nc3ccc(NC(C)=O)cc3)no2)cc1,-12%
11,CCOc1ccc(OCC)c(NC(=O)CC(C)n2nc(C)cc2C)c1 (centres undefined),19.2%
12,Cc1ccc2onc(CNC(=O)NCc3cccc(Cl)c3)c2c1,13.3%
13,CCCS(=O)(=O)N1CC(=O)N(c2cc(C)ccc2C)C(C)(C(=O)NC2CCCCCC2)C1 (centres undefined),18.2%
14,CC(C)N1C(=O)C(O)(c2c[nH]c3ccccc23)c2ccccc21 (centres undefined),-8.07%
15,N#CC1=C(N)N(c2cccc(Cl)c2)C2=C(C(=O)CCC2)C1c1cc(CN2CCOCC2)cs1 (centres undefined),26%
16,COc1cccc(-c2cn3c(n2)sc2cc(C(=O)NCCc4ccc(OC)c(OC)c4)ccc23)c1,-0.751%
17,CSc1cccc(NC(=O)CN2CCN(Cc3ccccc3C)S2(=O)=O)c1,-7.34%
18,Cc1cccc(N2C(=O)CS(=O)(=O)C23C(=O)N(Cc2c(F)cccc2Cl)c2ccccc23)c1 (centres undefined),2.21%
19,OCCN1CCN(C(c2ccccc2Cl)c2sc3nc(-c4ccco4)nn3c2O)CC1 (centres undefined),26.5%
20,CCc1ccccc1NC(=O)Cn1nc(C(F)(F)F)c2c1CCCC2,-1.67%
21,O=C(CCN1CCN(c2ccccc2F)CC1)Nc1cccc(F)c1,active: 79.7%
22,Clc1cccc(CNc2cc(-c3ccccc3)nc3nncn23)c1,12.2%
23,Cc1cc(C)c(NC(=O)CCn2c(=O)c3cccn3c3cccnc32)c(C)c1,-2.04%
24,CC1=Nc2ccccc2/C1=C\c1sc(Nc2ccc(C)cc2)nc1O,active: 61%
25,COc1ccccc1/C=N\Nc1cn[nH]c(=O)c1Cl,active: 30.1%

row,SMILES,inhibition
1,COc1ccc(CCC(=O)NC2CC(=O)N(c3cccc(F)c3)C2)cc1 (centres undefined),24.7%
2,CCC(=O)n1nc(-c2cccnc2)nc1NCc1ccc(F)cc1,6.24%
3,O=C(Cn1c(=O)oc2cc(S(=O)(=O)NCc3ccccc3)ccc21)Nc1ccc(F)c(Cl)c1,1.01%
4,COc1ccc(NC(=O)CCCSc2nc(-c3ccco3)cc(C(F)(F)F)n2)c(OC)c1,0.796%
5,COc1cccc(OCc2nc3ccccc3n2Cc2ccccc2C)c1,-19.1%
6,CCCOC(=O)c1c(NC(=O)C2c3ccccc3Oc3ccccc32)sc2c1CCCC2,-7.5%
7,COc1cc(NC(=O)Cn2nnc(-c3ccc(C(F)(F)F)cc3)n2)c(C(=O)O)cc1OC,-27%
8,CN(Cc1ccccc1)Cc1c[nH]c2ccccc12,active: 34.6%
9,O=C(COCc1cc(-c2cccs2)on1)NCc1ccc(Cl)cc1,-4.21%
10,COc1cccc(CNC(=O)Cc2csc3ccccc23)c1OC,-4.97%
11,Cc1ccc(NC(=O)CSc2nc3[nH]c(=O)cc(O)c3s2)c(Br)c1,active: 58.9%
12,COc1cccc(C2NC(=O)NC(C)=C2C(=O)Nc2ccc(C)cc2)c1OC (centres undefined),active: 31%
13,Cc1cc(C)c(NS(=O)(=O)c2ccc(-c3cnc(C4CC4)o3)cc2)c(C)c1,8.9%
14,CCc1ccc(NC(=O)Cn2ccn(Cc3ccccc3OC)c(=O)c2=O)cc1,4.69%
15,Cc1ccc(-n2nc(C)c3c(C)cc(=O)n(CC(=O)N4CCCc5ccccc54)c32)cc1,-3.33%
16,Cc1ccc(NC(=O)c2c(C)oc3ncnc(N4CCCCC4)c23)cc1Cl,-4.38%
17,CCn1cc(S(=O)(=O)c2cccc(Cl)c2)c(=O)c2cc(F)c(N3CCC(C)CC3)cc21,5.36%
18,COc1ccc(C)cc1NC(=O)CCc1c(C)nn(-c2ccc(N3CCOCC3)nn2)c1C,-12.8%
19,COc1cccc(-c2ccc3c(N)c(C(=O)c4ccc(Br)cc4)sc3n2)c1,-7.4%
20,Cc1ccc(NC(=O)C(=O)NCC(c2cccnc2)N2CCOCC2)cc1Cl (centres undefined),1.74%
21,Cc1nc2c(-c3ccccc3)c(C)[nH]n2c(=O)c1Cc1ccccc1,active: 42.6%
22,CCCSc1nnc(Sc2nnnn2-c2ccccc2)s1,active: 44.5%
23,CCSc1nnc2c(n1)OC(c1ccc(C)cc1)N(C(C)=O)c1ccccc1-2 (centres undefined),13.5%
24,COCCNC(=O)CCC(=O)N1Cc2cccc(OC)c2Oc2ncccc21,-2.37%

# Source: PubChem BioAssay AID485344 (National Center for Advancing Translational Sciences (NCATS), 2010)
